According to paper PMC3281992:
No constants are given. Whether binding was seen depends on the method and setting. For some of these results: In cells and extracts the contact can be indirect. Some binding calls cover weakened binding; strength is not graded here. For some of these results: Tags and fused reporters may be left off the sequences shown.

By UniProt entry, the sequences of proteins in these tests, tags left out.
UniProt Q9CQJ4: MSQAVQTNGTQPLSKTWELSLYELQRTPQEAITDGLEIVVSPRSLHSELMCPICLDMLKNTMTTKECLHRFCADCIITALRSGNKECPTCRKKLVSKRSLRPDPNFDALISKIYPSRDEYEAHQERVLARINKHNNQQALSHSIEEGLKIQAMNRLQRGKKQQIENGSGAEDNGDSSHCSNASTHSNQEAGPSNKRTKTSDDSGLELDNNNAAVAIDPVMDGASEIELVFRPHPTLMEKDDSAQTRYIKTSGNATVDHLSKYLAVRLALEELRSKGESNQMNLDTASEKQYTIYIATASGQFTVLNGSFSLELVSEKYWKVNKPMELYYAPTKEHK
UniProt O35730: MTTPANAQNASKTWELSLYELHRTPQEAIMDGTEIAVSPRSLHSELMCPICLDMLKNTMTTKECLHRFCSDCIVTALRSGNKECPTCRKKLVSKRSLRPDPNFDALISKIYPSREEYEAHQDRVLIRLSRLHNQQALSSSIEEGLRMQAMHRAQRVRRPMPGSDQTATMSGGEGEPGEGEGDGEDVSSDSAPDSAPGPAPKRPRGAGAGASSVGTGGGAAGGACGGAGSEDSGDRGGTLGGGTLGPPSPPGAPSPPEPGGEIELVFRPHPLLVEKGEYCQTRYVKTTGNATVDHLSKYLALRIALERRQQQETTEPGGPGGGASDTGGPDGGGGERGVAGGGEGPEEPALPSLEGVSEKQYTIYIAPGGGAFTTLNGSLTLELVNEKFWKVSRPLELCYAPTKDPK

How the values were obtained:
[1] = target: RING1B (mouse (endogenous in mESCs, NSCs, FSPE fibroblasts)) (UniProt Q9CQJ4); assay: co-IP; endogenous proteins from Eed4 WT and Eed4 cKO (doxycycline, Eed-depleted) mESC nuclear extracts; antibodies to RING1B, MEL-18, RYBP or CBX7 crosslinked to Protein A/G magnetic beads; with or without Benzonase or EtBr; washes in C-100* (100 mM KCl) at 4°C; western blot
[2] = target: T1, RYBP (mouse (endogenous in mESCs, NSCs, FSPE fibroblasts)) (UniProt Q8CCI5); assay: as above
T1 sequence: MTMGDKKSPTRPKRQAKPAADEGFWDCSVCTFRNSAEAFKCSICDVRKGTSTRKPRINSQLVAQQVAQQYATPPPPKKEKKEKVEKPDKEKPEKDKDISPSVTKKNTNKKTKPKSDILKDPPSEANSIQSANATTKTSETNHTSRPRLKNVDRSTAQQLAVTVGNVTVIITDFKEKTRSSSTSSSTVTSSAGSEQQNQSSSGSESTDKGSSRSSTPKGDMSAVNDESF

[3] = target: RING1B (mouse (endogenous in mESCs, NSCs, FSPE fibroblasts)) (UniProt Q9CQJ4); assay: co-IP; endogenous proteins from FSPE mouse fibroblast nuclear extract; IP of RING1B and RYBP; with or without Benzonase or EtBr; western blot
[4] = target: T1, RYBP (mouse (endogenous in mESCs, NSCs, FSPE fibroblasts)); assay: as above
RING1B-Flag-Hisx2 = RING1B-Flag-Hisx2 (UniProt Q9CQJ4); assay: co-purification of co-expressed recombinant proteins; Sf9 cells co-infected with baculoviruses for 60 hr; complexes purified as in Elderkin et al., 2007; analysed by western blot and Simply Blue Safe staining; bait not stated
RYBP-Flag (mouse) = target: T2, RYBP-Flag (mouse) (UniProt Q8CCI5); assay: co-IP; Flag purification of MEL-18-Flag, RYBP-Flag or CBX7-Flag from PGK12.1 mESC nuclear extract, analysed by western blot
T2 sequence: T1 sequence

CBX7-Flag (mouse) = CBX7-Flag (mouse) (UniProt Q8VDS3); assay: as above
MEL-18-Flag (mouse) = target: T3, MEL-18-Flag (mouse) (UniProt P23798); assay: SEC; MEL-18-Flag complexes purified from mESC nuclear extract by Flag affinity, run on Superose 6 PC 3.2/30 in C-100* buffer (100 mM KCl); fractions analysed by western blot
T3 sequence: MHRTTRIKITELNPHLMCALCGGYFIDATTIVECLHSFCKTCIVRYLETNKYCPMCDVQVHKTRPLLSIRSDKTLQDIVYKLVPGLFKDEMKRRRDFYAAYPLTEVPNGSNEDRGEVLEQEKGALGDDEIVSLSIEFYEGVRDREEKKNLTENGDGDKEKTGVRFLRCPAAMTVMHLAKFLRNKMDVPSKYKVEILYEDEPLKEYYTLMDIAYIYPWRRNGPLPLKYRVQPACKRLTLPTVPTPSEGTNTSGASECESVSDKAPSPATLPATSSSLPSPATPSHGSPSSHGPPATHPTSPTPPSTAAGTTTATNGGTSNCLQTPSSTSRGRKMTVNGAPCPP

[5] = target: T4, MEL-18 (mouse (endogenous in mESCs, FSPE fibroblasts)) (UniProt P23798); assay: co-IP; endogenous proteins from Eed4 WT and Eed4 cKO (doxycycline, Eed-depleted) mESC nuclear extracts; antibodies to RING1B, MEL-18, RYBP or CBX7 crosslinked to Protein A/G magnetic beads; with or without Benzonase or EtBr; washes in C-100* (100 mM KCl) at 4°C; western blot
T4 sequence: T3 sequence

[6] = target: CBX7 (mouse (endogenous in mESCs, NSCs, FSPE fibroblasts)) (UniProt Q8VDS3); assay: as above
[7] = target: T5, CBX7 (mouse (endogenous in mESCs, NSCs, FSPE fibroblasts)), Q8VDS3; assay: as above; settings: remark: other sources report otherwise
T5 chain: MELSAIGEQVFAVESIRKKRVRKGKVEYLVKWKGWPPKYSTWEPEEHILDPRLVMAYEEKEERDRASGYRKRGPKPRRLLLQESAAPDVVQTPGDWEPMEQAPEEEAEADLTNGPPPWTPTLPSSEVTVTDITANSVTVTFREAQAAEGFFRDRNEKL

[8] = target: T6, CBX7-Flag (mouse), Q8VDS3; assay: co-IP; Flag purification of MEL-18-Flag, RYBP-Flag or CBX7-Flag from PGK12.1 mESC nuclear extract, analysed by western blot; settings: remark: other sources report otherwise
T6 chain: T5 chain

CBX7 (from UniProt Q8VDS3 1-158)
binding [1]: binds
binding [2]: no binding
binding [3]: binds
binding [4]: no binding

CBX7-HA (from UniProt Q8VDS3 1-158)
binding (RING1B-Flag-Hisx2): binds

RING1A (from UniProt O35730 1-406)
binding (RYBP-Flag (mouse)): binds
binding (CBX7-Flag (mouse)): binds

RING1B (from UniProt Q9CQJ4 1-336)
binding (RYBP-Flag (mouse)): binds
binding (CBX7-Flag (mouse)): binds
binding (MEL-18-Flag (mouse)): binds
binding [5]: binds
binding [6]: binds
binding [2]: binds

B1: MPH1 (protein, UniProt Q64028 1-1010)
chain: METESEQNSSSTNGSSSSGASSRPQIAQMSLYERQAVQALQALQRQPNAAQYFHQFMLQQQLSNAQLHSLAAVQQATIAASRQASSPNSSTAQQQTATTQASMNLATTSAAQLISRSQSVSSPSATTLTQSVLLGNTTSPPLNQSQAQMYLRPQLGNLLQVNRTLGRNVPLASQLILMPNGAVAAVQQEVPPAQSPGVHADADQVQNLAVRNQQASAQGPQMPGSTQKAIPPGASPVSGLSQTSSQALAVAQASSGASGQSLNLSQAGGGSGNSLPGSMGPGGGGQAPGGLGQLPSSGLTGGSCPRKGTGVVQPLPAAQTVTVSQGSQTEAESAAAKKAEADGSGQQSVGMNLTRTATPAPSQTLISSATYTQIQPHSLIQQQQQIHLQQKQVVIQQQIAIHHQQQFQHRQSQLLHTATHLQLAQQQQQQQQQQQQQQQQQQQQQQGTTLTAPQPPQVPPTQQVPPSQSQQQAQTLVVQPMLQSSPLTLPPEPTSKPPIPIQSKPPVAPIKPPQLGAAKMSATQQPPPHIPVQVVGTRQPGSAQAQALGLAQLAAAVPTPRGITGAVQPGQAHLASSPPSSQAAPGALQECPPALAAGMTLAPVQGTAHVVKGGPTASSPVVAQVPAAFYMQSVHLPGKAQTLAVKRKAESEEERDDLSALASVLPTKASPAAESPKVIEEKNSLGEKAEPVASLNANPPNSDLVALAPTPSAPPPTLALVSRQMGDSKPPQAIVKPQILTHIIEGFVIQEGAEPFPVGCSQFLKETKKPLQAGLPTGLNESQPSGPLGGDSPSVELEKKANLLKCEYCGKYAPAEQFRGSKRFCSMTCAKRYNVSCSHQFRLKRKKMKEFQEASYARVRRRGPRRSSSDIARAKIQGKRHRGQEDSSRGSDNSSYDEALSPTSPGPLSVRAGHGERDLGNTITTPSTPELQGINPVFLSSNPSQWSVEEVYEFIASLQGCQEIAEEFRSQEIDGQALLLLKEEHLMSAMNIKLGPALKICAKINVLKET
binding [5]: binds
binding [1]: binds
binding [2]: binds weakly

B2: MEL-18, P23798 1-342 (protein)
chain: T3 sequence
binding [7]: binds
binding [8]: binds

B3: MPH1, Q64028 1-1010 (protein)
chain: B1 chain
binding [7]: binds
binding [8]: binds

B4: MEL18-HA (protein, UniProt P23798 1-342)
chain: T3 sequence
binding (RING1B-Flag-Hisx2): binds

B5: RYBP-HA (protein, UniProt Q8CCI5 1-228)
chain: T1 sequence
binding (RING1B-Flag-Hisx2): binds
